This is an account of results in patent publication US12679903B2, “Antibody for specifically binding to lysyl-tRNA synthetase N-terminal domain exposed to extracellular membrane” (Zymedi Co., Ltd., priority 2018, dated 2026).

The nature of series [1]: Thermal stability (protein thermal shift dye kit). Format: physicochemical. The conditions noted are these: 1 mg/ml purified antibody. As for the experimental part:
In addition, the thermal stability of the antibody was measured using 100 μl of the purified antibodies at a concentration of 1 mg/ml. Thermostability was investigated 4 times using protein thermal shift dye kit (Thermofisher) and Quant Studio 3 Real-time PCR equipment (Thermofisher).

Another series deals with RAW264.7 cells. Briefly: LN421-dependent immune cell migration assay. Format: cell-based. To be noted: 10 nM, 24 hours, LN421 2.5 μg/ml; FIG. 18. As for the experimental part:
In order to confirm the effect of the mutant antibody from which the ADCC/CDC function had been removed on immune cell migration, a cell migration assay was performed according to the method described in the prior literature (Park, S. G. et al. Human lysyl-tRNA synthetase is secreted to trigger pro-inflammatory response, Proc. Natl. Acad. Sci. USA 102, 6356-6361 (2005)).
Measurements were made in a trans well chamber with a polycarbonate membrane (5.0 μm pore size, Costar). LN421 was put into the lower chamber at a concentration of 2.5 μg/ml in the trans well chamber. Then, RAW264.7 cells were placed in the upper chamber at a concentration of 5×10^4 cells per well. Then, each antibody was put into the chamber at a concentration of 10 nM, and then incubated for 24 hours. Then, it was washed twice with PBS and treated with 70% MeOH (in PBS). After washing twice with PBS again, the transferred cells were stained with crystal violet (Sigma) and dried. Then, the upper chamber was put in 33% acetic acid (Merck) and stirred for 10 minutes. Crystal violet-dissolved acetic acid solution was transferred to a 96-well plate, and absorbance was measured at 590 nm in a microplate reader (Tecan).

In series [2] the test system is T52D KRS-MDA-MB-231 stable cells. Briefly: Laminin-dependent cancer cell migration assay. It is filed as cell-based. To be noted: 10 nM, 7 hours; FIG. 19. On the procedure:
Measurements were made in a 24-well trans well chamber with a polycarbonate membrane (8.0 μm pore size, Costar). Laminin was added to the lower chamber at a concentration of 1 mg/ml, and a migration assay was performed using stable MDA-MB-231 cells overexpressing T52D KRS, which mimics a phosphorylated KRS. To induce T52D KRS expression, T52D KRS-MDA-MB-231 stable cells were treated with doxycycline (0.1 μg/ml) for one day, and then seeded in the upper chamber at a concentration of 4×10^4 cells after suspended in serum-free RPMI medium. […] The non-migrating cells existing above the membrane were removed with a cotton swab. The membrane was washed twice with PBS and treated with 70% MeOH (in PBS) for 30 minutes. Again washed twice with PBS, the membrane was stained using crystal violet (Slgma), and dried. Then, the upper chamber was put in 33% acetic acid (Merck) and stirred. Crystal violet-dissolved acetic acid solution was transferred to a 96-well plate, and absorbance was measured at 590 nm in a microplate reader (Tecan).

B1: N3-8-1: N3-8 derivative; VH SEQ ID NO: 45, VL 51; HC 103, LC 111 (antibody)
heavy: EVQLLESGGGLVQPGGSLRLSCAASGFTFSSYDMSWVRQAPGKGLEWVSAISPYSGRIYYADSVKGRFTISRDNSKNTLYLQMNSLRAEDTAVYYCARMALDFDYWGQGTLVTVSS[letters of human IgG1 constant region omitted]
light: QSVLTQPPSASGTPGQRVTISCTGSSSNIGSNYVTWYQQLPGTAPKLLIYDNSNRPSGVPDRFSGSKSGTSASLAISGLQSEDEADYYCSSFSDELGAYVFGGGTKLTVLGQPKAAPSVTLFPPSSEELQANKATLVCLISDFYPGAVTVAWKADSSPVKAGVETTTPSKQSNNKYAASSYLSLTPEQWKSHRSYSCQVTHEGSTVEKTVAPTECS
modifications: IgG heavy chain 6; IgG light chain 3
notes: N3-8 derivative; HC 103, LC 111
On to B1, for which the “Thermal stability Tm1” value in series [1] was found to be 69.94. Further, the LN421-dependent cell migration entry in the series with RAW264.7 cells was “inhibited LN421-dependent cell migration”. In series [2], the “laminin-dependent migration of cancer cells” value is given as “inhibited the laminin-dependent migration of cancer cells”.

B2: N3-8-1 mutant LALAPGTA: N3-8-1 with ADCC/CDC function removed; HC SEQ ID NO: 232, LC 111 (antibody)
heavy: EVQLLESGGGLVQPGGSLRLSCAASGFTFSSYDMSWVRQAPGKGLEWVSAISPYSGRIYYADSVKGRFTISRDNSKNTLYLQMNSLRAEDTAVYYCARMALDFDYWGQGTLVTVSSASTKGPSVFPLAPSSKSTSGGTAALGCLVKDYFPEPVTVSWNSGALTSGVHTFPAVLQSSGLYSLSSVVTVPSSSLGTQTYICNVNHKPSNTKVDKKV[letters of human IgG1 Fc with L234A L235A T299A P329G (EU numbers) omitted]
light: B1 light
modifications: IgG heavy chain 6_IgG1 mutant LALAPGTA_amino acid; IgG light chain 3
As to B2, the LN421-dependent cell migration result with RAW264.7 cells was “inhibited LN421-dependent cell migration”. For the same molecule, the “laminin-dependent migration of cancer cells” value in series [2] is recorded as “inhibited the laminin-dependent migration of cancer cells”.
